Measured values from PubChem BioAssay AID1476 (National Center for Advancing Translational Sciences (NCATS), 2009).
Where “and” joins values, the source holds several entries; their conditions need not be identical. Equal values may be shown once. The campaign covered roughly 200,000 compounds. About 4,500 (2.2%) were called active. The inconclusive results got no clear call from the source; some entries with a clear call stand among them for comparison. Calls come from the whole dose curve; as a rule, active = well fitted inhibition curve with a large enough effect; inconclusive = small, poorly fitted or top-dose-only effect, or effect the other way; inactive = flat fitted curve, though single readings scatter. A potency beside an inconclusive call is a rough fit, not a confirmed value.
Note: nearly all actives have a fitted effect of over 40% in size.
Potency is the fitted concentration of half-maximal effect; tags give direction and shape of the fitted curve.
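Throughout, for max response, negative = inhibition: plate controls were enzyme without inhibitor for no effect and buffer without enzyme for full effect.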

Each compound was assayed against Cruzipain (Trypanosoma cruzi) (UniProt P25779) (assay: qHTS Assay for Promiscuous and Specific Inhibitors of Cruzain (without detergent)). Details: purified cruzain, Z-FR-AMC fluorescence, no detergent.
Sequence of UniProt P25779 (P25779 whole entry, looked up): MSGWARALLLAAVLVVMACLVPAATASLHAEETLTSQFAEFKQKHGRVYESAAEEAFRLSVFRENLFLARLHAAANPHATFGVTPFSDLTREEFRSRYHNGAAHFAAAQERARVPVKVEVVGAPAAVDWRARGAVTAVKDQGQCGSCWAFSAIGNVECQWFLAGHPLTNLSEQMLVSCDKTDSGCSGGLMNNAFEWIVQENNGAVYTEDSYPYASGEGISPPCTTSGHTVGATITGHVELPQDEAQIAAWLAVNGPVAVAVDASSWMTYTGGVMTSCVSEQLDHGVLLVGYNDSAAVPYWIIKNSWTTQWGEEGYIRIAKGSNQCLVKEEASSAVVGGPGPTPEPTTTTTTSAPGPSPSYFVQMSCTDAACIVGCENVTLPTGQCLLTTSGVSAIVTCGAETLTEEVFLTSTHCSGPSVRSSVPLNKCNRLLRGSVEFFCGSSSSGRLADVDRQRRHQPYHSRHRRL
Method in brief: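 Purified cruzain at 1.5 nM, pre-incubated 15 min with compound at room temperature in 100 mM sodium acetate pH 5.5, 5 mM DTT, 0.00005% Triton X-100. Reaction started with 2 uM Z-FR-AMC; AMC fluorescence increase over 60 s gives rate.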
For `Cc1ccccc1-c1nnc(NC(=O)CSc2nc3ccccc3s2)s1`, the Potency was inconclusive: 31.6 µM [inhibitor, single point]. In the case of `O=C(C[n+]1ccc(C(=O)N/N=C/c2ccc(OCc3ccccc3)cc2)cc1)c1ccccc1`, the Potency is reported as inconclusive: 25.1 µM [inhibitor, single point]. `O=C1C(=O)c2ccccc2-c2ccccc21` was tested, and the Potency was inconclusive: 39.8 µM [inhibitor, single point]. `COc1ccc(C(=O)Nc2nc3c(s2)CCCC3)cc1S(=O)(=O)N1CCCc2ccccc21` was tested, and the Potency was inconclusive: 39.8 µM [inhibitor, single point]. With `CCOc1ccc2c(C)c(Cl)c(=O)oc2c1` the Potency was inconclusive: 39.8 µM [inhibitor, single point]. With `COCCN(C(=O)C(C)C)c1nnc(-c2cccc(C)c2)s1` the Potency was inconclusive: 31.6 µM [activator, partial curve]. `CC(C)=CCCC1(C)C=Cc2c(O)c3c(c(CC=C(C)C)c2O1)OC12C(=CC4CC1C(C)(C)OC2(C/C=C(/C)C(=O)O)C4O)C3=O` (stereo unspecified) was tested, and the Potency was inconclusive: 12.6 µM [activator, partial curve]. For `Cc1ccc(NC(=O)C(=O)NCC(c2cccnc2)N2CCOCC2)cc1Cl` (stereo unspecified), the Potency was inconclusive: 25.1 µM [activator, partial curve]. For `COc1cc(NC(=S)NC(=O)c2ccccc2C)ccc1NC(=O)c1cccs1`, the max response, negative = inhibition was inactive: -21.1%. `COc1ccc(Cl)cc1NC(=O)CCS(=O)(=O)c1cccc2nonc12` was tested, and the max response, negative = inhibition was inactive: -0.0853%. For `COc1ccc(/C=N/NC(=O)c2cccc(NC(=O)c3ccc(Cl)cc3)c2)c(OC)c1`, the Potency was inconclusive: 39.8 µM [inhibitor, single point]. `Cc1ccc(-c2[nH]c3ccccc3c2SCCNC(=O)c2ccc(S(=O)(=O)N(C)C)cc2)cc1` was tested, and the Potency was inconclusive: 39.8 µM [inhibitor, single point]. For `O=C(Nc1ccc(O)c(-c2nc3ccccc3o2)c1)C1(c2ccccc2)CCCC1`, the Potency was active: 25.1 µM. In the case of `COc1ccc(CNC(=O)CCCN2C(=O)CSc3c2c(C)nn3-c2ccccc2)c(OC)c1`, the Potency is reported as inconclusive: 25.1 µM [activator, single point]. `Cc1ccccc1C(=O)NCCc1nnc(SCC(=O)Nc2nc(-c3ccccc3)cs2)n1C` was tested, and the Potency was inconclusive: 39.8 µM [activator, single point]. For `O=C(C1CC1)N1CCc2cc(Br)cc(S(=O)(=O)NC3CCCCC3)c21`, the Potency was inconclusive: 25.1 µM [inhibitor, single point]. In the case of `CN1/C(=C\C(=O)Nc2ccc(Cl)cc2)C(C)(C)c2ccccc21`, the max response, negative = inhibition is reported as inactive: -1.67%. With `Cc1cccc(N2CCN(C(=O)c3ccc(CS(=O)c4cccc(Cl)c4)o3)CC2)c1C` (stereo unspecified) the Potency was inconclusive: 39.8 µM [activator, single point]. `COc1ccc(CN(C(=O)Nc2cccc(Cl)c2)c2ccccn2)cc1OC` was tested, and the Potency was inconclusive: 31.6 µM [activator, single point]. `Cn1c(Cc2cccc3ccccc23)nnc1SCC(=O)N1CCN(c2ccccc2)CC1` was tested, and the Potency was inconclusive: 39.8 µM [activator, single point]. `S=C(Nc1ccccc1)Nc1ccc(OCc2ccccc2)cc1` was tested, and the Potency was active: 12.6 µM. `COC(=O)[C@@]1(Cc2ccc(F)cc2)[C@H]2c3cc(C(=O)N4CCCC4)n(CCc4ccc(O)c(O)c4)c3C[C@H]2CN1C(=O)c1ccccc1` was tested, and the Potency was inconclusive: 25.1 µM [activator, partial curve] and inconclusive: 10 µM [activator, partial curve]. In the case of `O=c1n(Cc2cccc(F)c2)c2ccccc2c2nc(-c3ccccc3)nn12`, the max response, negative = inhibition is reported as inactive: -7.41%. With `O=C(Nc1nnc(SCc2ccc(F)cc2)s1)c1ccc2ncsc2c1` the Potency was inconclusive: 31.6 µM [inhibitor, single point]. In the case of `Cc1sc2nc(SCc3nnc(-c4cccs4)o3)n(C3CCCC3)c(=O)c2c1C`, the Potency is reported as inconclusive: 31.6 µM [inhibitor, single point]. `O=C(c1cccn2c(=O)c3cc(Cl)ccc3nc12)N1CCN(Cc2ccc3c(c2)OCO3)CC1` was tested, and the Potency was inconclusive: 39.8 µM [activator, single point]. With `CCOc1cc(C(=S)N2CCOCC2)ccc1OC(=O)/C=C/c1ccc(OC)c(OC)c1` the Potency was inconclusive: 25.1 µM [activator, single point]. `COc1ccc(Cl)cc1NC(=O)Cn1c(=O)n(Cc2ccco2)c(=O)c2ccc(C(=O)NC3CCCC3)cc21` was tested, and the max response, negative = inhibition was inactive: -26.1%. `Cc1cccc(-c2nnc3n(CCc4ccccc4)c(=O)c4ccccc4n23)c1` was tested, and the max response, negative = inhibition was inactive: 0.842%. For `CCNc1ncc2nc(CCc3ccccc3)c(=O)n(Cc3cccc(OC)c3)c2n1`, the max response, negative = inhibition was inactive: -2.79%. In the case of `COC(=O)c1nc2nc(-c3cccs3)cc(C(F)(F)F)n2n1`, the Potency is reported as inconclusive: 39.8 µM [activator, single point]. In the case of `CCOC(=O)c1c(/N=C/C2C(=O)CC(C)(C)CC2=O)sc(C)c1C`, the Potency is reported as inconclusive: 39.8 µM [activator, single point]. With `Nc1c(C(=O)NCc2ccc3c(c2)OCO3)c2nc3ccccc3nc2n1CCCN1CCOCC1` the Potency was inconclusive: 31.6 µM [activator, single point]. For `Fc1ccc(CSc2ccc(-c3ccc4c(c3)OCO4)nn2)cc1`, the Potency was inconclusive: 39.8 µM [inhibitor, single point]. For `Cc1ccc(C)c(N(CC(=O)NCCSCc2ccco2)S(C)(=O)=O)c1`, the Potency was inconclusive: 31.6 µM [activator, single point]. In the case of `CC(=O)Nc1ccc(S(=O)(=O)Nc2ccc(-c3cn4c(C)csc4n3)cc2)cc1`, the Potency is reported as inconclusive: 31.6 µM [inhibitor, single point]. `CCOc1ccc(CNC(=O)c2cc3c(=O)n(Cc4cccs4)ccc3nc2C)cc1` was tested, and the Potency was inconclusive: 31.6 µM [activator, single point]. With `COCC(=O)N1CCC2(CC1)CN(Cc1cc(C(F)(F)F)cc(C(F)(F)F)c1)C2` the max response, negative = inhibition was inactive: -4.47%. For `O=C(Nc1nc(-c2ccc(-c3ccccc3)cc2)cs1)C1=COCCO1`, the Potency was inconclusive: 25.1 µM [inhibitor, single point]. `CCOCCCn1c(N)c(C(=O)Nc2sc3c(c2C(=O)OC)CCCC3)c2nc3ccccc3nc21` was tested, and the Potency was inconclusive: 10 µM [activator, partial curve]. With `Cc1ccc(Cn2cc(S(=O)(=O)c3ccc(C(C)C)cc3)c(=O)c3cc4c(cc32)OCO4)cc1` the Potency was active: 31.6 µM. In the case of `CCCn1nc(NC(=O)c2ccccn2)c2cc3cc(C)ccc3nc21`, the Potency is reported as inconclusive: 31.6 µM [activator, single point]. `COc1ccc(-c2noc(CSc3nnc(Cc4ccccc4)n3-c3cccc(C)c3)n2)cc1OC` was tested, and the Potency was inconclusive: 39.8 µM [activator, single point]. For `Cc1oc2ccc(O)c(CN(C)Cc3ccccc3)c2c1C(=O)Nc1cccc(Cl)c1C`, the Potency was inconclusive: 39.8 µM [inhibitor, single point]. In the case of `Cc1ccc(N2C(=O)c3ccc(C(=O)N4CCN(c5ccccc5F)CC4)cc3C2=O)cc1`, the max response, negative = inhibition is reported as inactive: 10.7%. In the case of `CCOc1ccc(NC(=O)CSc2nnc(COc3c(C)cccc3C)o2)cc1`, the Potency is reported as inconclusive: 39.8 µM [inhibitor, single point]. With `O=C(N/N=C\c1ccc(CNS(=O)(=O)c2ccc(Cl)cc2)o1)C(=O)Nc1ccc(Oc2ccccc2)cc1` the Potency was active: 7.94 µM. With `CCN(CC)S(=O)(=O)c1cccc(C(=O)NC(C(=O)Nc2nnc(C3CC3)s2)C(C)C)c1` (stereo unspecified) the Potency was inconclusive: 39.8 µM [activator, single point]. `COc1ccc(C(CC(=O)Nc2cc([N+](=O)[O-])ccc2OC)c2ccccc2)cc1` (stereo unspecified) was tested, and the Potency was inconclusive: 20 µM [inhibitor, single point]. For `CCCCn1c2ccccc2c2nnc(SCC(=O)Nc3ccc(NC(C)=O)cc3)nc21`, the Potency was active: 20 µM. For `COc1ccc(CCNC(=O)CCc2cn(Cc3ccc(C)cc3)c3ccccc23)cc1OC`, the Potency was inconclusive: 31.6 µM [activator, partial curve]. `CCOC(=O)N1CCN(C(=O)c2ccc3c(c2)N(Cc2cc(C)ccc2C)C(=O)c2ccccc2S3=O)CC1` (stereo unspecified) was tested, and the Potency was inconclusive: 39.8 µM [activator, single point]. With `CCCCOC(=O)c1ccc(NS(=O)(=O)c2cc(-c3nnnn3CC)ccc2OC)cc1` the Potency was inconclusive: 39.8 µM [activator, single point]. `FC(F)(F)c1ccc(C2[C@H]3CN(Cc4ccc(-c5ccccc5)cc4)[C@H](c4ccccc4)C34CC2(c2ccccc2)C4)cc1` (stereo partly specified) was tested, and the Potency was active: 12.6 µM. With `CC(C)c1ccc(C2N3CCCN23)cc1` (stereo unspecified) the max response, negative = inhibition was inactive: -5.8%. `O=C(CSc1nnc(-c2ccc(F)cc2)c2ccccc12)Nc1ccccc1` was tested, and the Potency was active: 31.6 µM. `Cc1ccc(-n2nnnc2SCC(=O)Nc2ncc(Cc3ccccc3Cl)s2)cc1` was tested, and the Potency was inconclusive: 6.31 µM [inhibitor, single point]. In the case of `CCN(CC)CCCNC(=S)N1CCn2c(nc3ccccc32)C1`, the max response, negative = inhibition is reported as inactive: -3.75%. `O=S(=O)(c1ccccc1)c1nnn2c1nc(Nc1ccccc1)c1cc(Cl)ccc12` was tested, and the max response, negative = inhibition was inactive: 7.47%. In the case of `O=C(OCC(=O)N1CCN(C(=O)c2ccco2)CC1)c1cn(-c2ccccc2)nc1-c1ccccc1`, the Potency is reported as inconclusive: 31.6 µM [activator, partial curve]. `CCOc1ccc(N(C)C(=O)C2CCN(S(=O)(=O)c3ccc4c(c3)CCCN4C(C)=O)CC2)cc1` was tested, and the Potency was inconclusive: 25.1 µM [activator, single point].
